Results reported in patent US4886667A, “External preparation composition” (priority 1985, dated 1989).
Where two headings read alike, the source gives them in different places.

Test system: Clostridium perfringens (9 isolated strains)
Type: cell-based

Row | Compound | Cumulation percent of MIC (MIC 100 μg/ml) [%] | Cumulation percent of MIC (MIC 0.39 μg/ml) [%] | Cumulation percent of MIC (MIC 0.78 μg/ml) [%]
1 | CC1=C(C(=O)O)N2C(=O)[C@@H](NC(=O)[C@H](N)c3ccccc3)[C@H]2SC1 [S, Cefalexin] | 100 |  | 
2 | CN(C)[C@@H]1C(=O)C(C(N)=O)=C(O)[C@@]2(O)C(=O)C3=C(O)c4c(O)cccc4[C@@](C)(O)[C@H]3C[C@@H]12 [R, Tetracycline] |  | 22 | 33
